The record followed here is article PMC5908291, “The JmjN domain as a dimerization interface and a targeted inhibitor of KDM4 demethylase activity” (Oncotarget, 2018).

Protein sequences, listed by entry. Tags and fused reporters are not part of them. Residues count along the entry.
UniProt O94953, residues 1-57: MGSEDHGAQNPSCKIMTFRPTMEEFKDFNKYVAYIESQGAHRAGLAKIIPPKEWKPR

No constants are given. Whether binding was seen depends on the method and setting. In cells and extracts the contact can be indirect. Some entries that bind do so weakly or less than the wild type. For part of these data: Tags and fused reporters may be left off the sequences shown.

The chains are these.
B1: KDM4C with a C-terminal YN or YC tag (enzyme, human, UniProt Q9H3R0 1-1056, looked up)
chain: MEVAEVESPLNPSCKIMTFRPSMEEFREFNKYLAYMESKGAHRAGLAKVIPPKEWKPRQCYDDIDNLLIPAPIQQMVTGQSGLFTQYNIQKKAMTVKEFRQLANSGKYCTPRYLDYEDLERKYWKNLTFVAPIYGADINGSIYDEGVDEWNIARLNTVLDVVEEECGISIEGVNTPYLYFGMWKTTFAWHTEDMDLYSINYLHFGEPKSWYAIPPEHGKRLERLAQGFFPSSSQGCDAFLRHKMTLISPSVLKKYGIPFDKITQEAGEFMITFPYGYHAGFNHGFNCAESTNFATVRWIDYGKVAKLCTCRKDMVKISMDIFVRKFQPDRYQLWKQGKDIYTIDHTKPTPASTPEVKAWLQRRRKVRKASRSFQCARSTSKRPKADEEEEVSDEVDGAEVPNPDSVTDDLKVSEKSEAAVKLRNTEASSEEESSASRMQVEQNLSDHIKLSGNSCLSTSVTEDIKTEDDKAYAYRSVPSISSEADDSIPLSSGYEKPEKSDPSELSWPKSPESCSSVAESNGVLTEGEESDVESHGNGLEPGEIPAVPSGERNSFKVPSIAEGENKTSKSWRHPLSRPPARSPMTLVKQQAPSDEELPEVLSIEEEVEETESWAKPLIHLWQTKSPNFAAEQEYNATVARMKPHCAICTLLMPYHKPDSSNEENDARWETKLDEVVTSEGKTKPLIPEMCFIYSEENIEYSPPNAFLEEDGTSLLISCAKCCVRVHASCYGIPSHEICDGWLCARCKRNAWTAECCLCNLRGGALKQTKNNKWAHVMCAVAVPEVRFTNVPERTQIDVGRIPLQRLKLKCIFCRHRVKRVSGACIQCSYGRCPASFHVTCAHAAGVLMEPDDWPYVVNITCFRHKVNPNVKSKACEKVISVGQTVITKHRNTRYYSCRVMAVTSQTFYEVMFDDGSFSRDTFPEDIVSRDCLKLGPPAEGEVVQVKWPDGKLYGAKYFGSNIAHMYQVEFEDGSQIAMKREDIYTLDEELPKRVKARFSTASDMRFEDTFYGADIIQGERKRQRVLSSRFKNEYVADPVYRTFLKSSFQKKCQKRQ
notes: Lysine demethylase KDM4C (GASC1), human, ORF amplified from pCMV-HA-GASC1; 1056 aa as printed; BiFC pair: one molecule stands for the YN and the YC conjugate; also called KDM4C-YN; KDM4C-YC; source: HEK293, transiently transfected, in cells; not shown: YN (Venus YFP residues 1-172) on one copy or YC (Venus YFP residues 155-238) on the other, C-terminal, kept

Test [1] addresses isolated JmjN domain of KDM4B with a C-terminal YN or YC tag (human) (UniProt O94953). The test is described as follows: split reporter; BiFC (Venus YN + YC), live cell confocal imaging of HEK293 cells 20 h after co-transfection, 37°C, 5% CO2.
The target is the same in test [2]. In words: split reporter; BiFC (Venus YN + YC), immunofluorescence microscopy of fixed, permeabilised HEK293 cells 20 h after co-transfection; transfected cells marked by anti-YFP, anti-KDM4C or anti-HA.
Test [3] concerns the target B1. In words: split reporter; BiFC (Venus YN + YC), live cell confocal imaging of HEK293 cells 20 h after co-transfection, 37°C, 5% CO2.
For test [4], the target named is B1. In words: split reporter; BiFC (Venus YN + YC), immunofluorescence microscopy of fixed, permeabilised HEK293 cells 20 h after co-transfection; transfected cells marked by anti-YFP, anti-KDM4C or anti-HA.
For test [5], the target named is KDM4C lacking the JmjC domain, with a C-terminal YN or YC tag (human) (UniProt Q9H3R0). Described as above.
In test [6] the target is T1, KDM4A with a C-terminal YN or YC tag (human) (UniProt O75164).
T1 sequence: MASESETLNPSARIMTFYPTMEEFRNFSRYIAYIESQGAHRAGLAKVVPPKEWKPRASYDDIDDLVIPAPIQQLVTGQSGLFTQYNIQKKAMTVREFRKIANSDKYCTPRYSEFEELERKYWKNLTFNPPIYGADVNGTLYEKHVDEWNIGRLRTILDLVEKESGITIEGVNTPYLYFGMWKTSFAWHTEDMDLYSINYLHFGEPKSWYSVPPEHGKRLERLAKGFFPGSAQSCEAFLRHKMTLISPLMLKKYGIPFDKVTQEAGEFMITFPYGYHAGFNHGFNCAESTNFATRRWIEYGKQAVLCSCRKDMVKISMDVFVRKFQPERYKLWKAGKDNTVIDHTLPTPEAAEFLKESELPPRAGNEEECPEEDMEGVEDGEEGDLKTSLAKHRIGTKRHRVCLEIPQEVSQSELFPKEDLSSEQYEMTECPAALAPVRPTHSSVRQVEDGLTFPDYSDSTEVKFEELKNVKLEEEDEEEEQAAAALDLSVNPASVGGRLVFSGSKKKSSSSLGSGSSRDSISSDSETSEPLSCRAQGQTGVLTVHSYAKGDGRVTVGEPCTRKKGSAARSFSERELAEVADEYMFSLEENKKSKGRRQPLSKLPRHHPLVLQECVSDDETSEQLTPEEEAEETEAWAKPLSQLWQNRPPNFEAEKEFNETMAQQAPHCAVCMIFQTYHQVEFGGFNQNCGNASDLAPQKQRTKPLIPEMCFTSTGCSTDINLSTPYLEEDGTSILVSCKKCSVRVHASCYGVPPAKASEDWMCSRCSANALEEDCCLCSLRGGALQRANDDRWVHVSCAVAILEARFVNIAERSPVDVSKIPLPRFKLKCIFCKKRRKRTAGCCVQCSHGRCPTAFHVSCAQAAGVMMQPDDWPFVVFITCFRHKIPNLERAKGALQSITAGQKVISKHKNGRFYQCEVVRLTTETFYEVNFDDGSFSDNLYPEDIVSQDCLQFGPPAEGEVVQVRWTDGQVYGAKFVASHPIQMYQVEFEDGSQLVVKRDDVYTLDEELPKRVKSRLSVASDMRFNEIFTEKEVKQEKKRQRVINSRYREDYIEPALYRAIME
The test is described as follows: split reporter; BiFC (Venus YN + YC), live cell confocal imaging of HEK293 cells 20 h after co-transfection, 37°C, 5% CO2.

In test [7] the target is T1, KDM4A with a C-terminal YN or YC tag (human). In words: split reporter; BiFC (Venus YN + YC), immunofluorescence microscopy of fixed, permeabilised HEK293 cells 20 h after co-transfection; transfected cells marked by anti-YFP, anti-KDM4C or anti-HA.

Regarding “isolated JmjN domain of KDM4B with a C-terminal YN or YC tag (from UniProt O94953 1-57) (domain or fragment)”, the binding entry in test [1] and in test [2] was “binds” in each case.
Turning to B1, the binding entry in test [3] and in test [4] was “binds” throughout.

B2: KDM4C lacking the JmjC domain, with a C-terminal YN or YC tag (enzyme, UniProt Q9H3R0)
chain: MEVAEVESPLNPSCKIMTFRPSMEEFREFNKYLAYMESKGAHRAGLAKVIPPKEWKPRQCYDDIDNLLIPAPIQQMVTGQSGLFTQYNIQKKAMTVKEFRQLANSGKYCTPRYLDYEDLERKYWKNLTFVAPIYGADINGSIYRKDMVKISMDIFVRKFQPDRYQLWKQGKDIYTIDHTKPTPASTPEVKAWLQRRRKVRKASRSFQCARSTSKRPKADEEEEVSDEVDGAEVPNPDSVTDDLKVSEKSEAAVKLRNTEASSEEESSASRMQVEQNLSDHIKLSGNSCLSTSVTEDIKTEDDKAYAYRSVPSISSEADDSIPLSSGYEKPEKSDPSELSWPKSPESCSSVAESNGVLTEGEESDVESHGNGLEPGEIPAVPSGERNSFKVPSIAEGENKTSKSWRHPLSRPPARSPMTLVKQQAPSDEELPEVLSIEEEVEETESWAKPLIHLWQTKSPNFAAEQEYNATVARMKPHCAICTLLMPYHKPDSSNEENDARWETKLDEVVTSEGKTKPLIPEMCFIYSEENIEYSPPNAFLEEDGTSLLISCAKCCVRVHASCYGIPSHEICDGWLCARCKRNAWTAECCLCNLRGGALKQTKNNKWAHVMCAVAVPEVRFTNVPERTQIDVGRIPLQRLKLKCIFCRHRVKRVSGACIQCSYGRCPASFHVTCAHAAGVLMEPDDWPYVVNITCFRHKVNPNVKSKACEKVISVGQTVITKHRNTRYYSCRVMAVTSQTFYEVMFDDGSFSRDTFPEDIVSRDCLKLGPPAEGEVVQVKWPDGKLYGAKYFGSNIAHMYQVEFEDGSQIAMKREDIYTLDEELPKRVKARFSTASDMRFEDTFYGADIIQGERKRQRVLSSRFKNEYVADPVYRTFLKSSFQKKCQKRQ
Consider B2, for which the binding entry in test [5] is given as “binds”.

B3: KDM4A with a C-terminal YN or YC tag (enzyme, human, UniProt O75164 1-1064, looked up)
chain: MASESETLNPSARIMTFYPTMEEFRNFSRYIAYIESQGAHRAGLAKVVPPKEWKPRASYDDIDDLVIPAPIQQLVTGQSGLFTQYNIQKKAMTVREFRKIANSDKYCTPRYSEFEELERKYWKNLTFNPPIYGADVNGTLYEKHVDEWNIGRLRTILDLVEKESGITIEGVNTPYLYFGMWKTSFAWHTEDMDLYSINYLHFGEPKSWYSVPPEHGKRLERLAKGFFPGSAQSCEAFLRHKMTLISPLMLKKYGIPFDKVTQEAGEFMITFPYGYHAGFNHGFNCAESTNFATRRWIEYGKQAVLCSCRKDMVKISMDVFVRKFQPERYKLWKAGKDNTVIDHTLPTPEAAEFLKESELPPRAGNEEECPEEDMEGVEDGEEGDLKTSLAKHRIGTKRHRVCLEIPQEVSQSELFPKEDLSSEQYEMTECPAALAPVRPTHSSVRQVEDGLTFPDYSDSTEVKFEELKNVKLEEEDEEEEQAAAALDLSVNPASVGGRLVFSGSKKKSSSSLGSGSSRDSISSDSETSEPLSCRAQGQTGVLTVHSYAKGDGRVTVGEPCTRKKGSAARSFSERELAEVADEYMFSLEENKKSKGRRQPLSKLPRHHPLVLQECVSDDETSEQLTPEEEAEETEAWAKPLSQLWQNRPPNFEAEKEFNETMAQQAPHCAVCMIFQTYHQVEFGGFNQNCGNASDLAPQKQRTKPLIPEMCFTSTGCSTDINLSTPYLEEDGTSILVSCKKCSVRVHASCYGVPPAKASEDWMCSRCSANALEEDCCLCSLRGGALQRANDDRWVHVSCAVAILEARFVNIAERSPVDVSKIPLPRFKLKCIFCKKRRKRTAGCCVQCSHGRCPTAFHVSCAQAAGVMMQPDDWPFVVFITCFRHKIPNLERAKGALQSITAGQKVISKHKNGRFYQCEVVRLTTETFYEVNFDDGSFSDNLYPEDIVSQDCLQFGPPAEGEVVQVRWTDGQVYGAKFVASHPIQMYQVEFEDGSQLVVKRDDVYTLDEELPKRVKSRLSVASDMRFNEIFTEKEVKQEKKRQRVINSRYREDYIEPALYRAIME
notes: Lysine demethylase KDM4A (JmjD2A), human, ORF amplified from pCMV-HA-JmjD2A; BiFC pair: one molecule stands for the YN and the YC conjugate; also called KDM4A-YN; KDM4A-YC; source: HEK293, transiently transfected, in cells; not shown: YN (Venus YFP residues 1-172) on one copy or YC (Venus YFP residues 155-238) on the other, C-terminal, kept
Regarding B3, the binding entry in test [3], in test [6], in test [4] and in test [7] was “binds” throughout.
